In the supplement of paper PMC4604168 (melanoma cell lines):
The other results are listed elsewhere or left out. Most values come without repeats; read them as rough.

Legend:
Test in all cases: cell count relative to DMSO control; melanoma cells; higher = more viable cells
Settings in all cases: library dose: low library concentration; 72 h
WM115 = system: WM115
WM1716 = system: WM1716
WM1745 = system: WM1745
WM3526 = system: WM3526
WM3619 = system: WM3619
WM451Lu = system: WM451Lu
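Further: cell number obtained by counting DAPI-stained nuclei in high-throughput microscope images with image analysis software, screen run in 1,536-well plates.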

| Compound | cell count (WM115) | cell count (WM1716) | cell count (WM1745) | cell count (WM3526) | cell count (WM3619) | cell count (WM451Lu) |
| --- | --- | --- | --- | --- | --- | --- |
| Clc1ccc(Nc2nnc(Cc3ccncc3)c3ccccc23)cc1 [vatalanib] + O=C(CCCCCCC(=O)Nc1ccccc1)NO [vorinostat] (first compound 2 µM, partner dose 0.08 µM) | 86.8% | 94% | 90.9% | 86% | 88.4% | 88.5% |
| COCC[n+]1c2c(n(Cc3cnccn3)c1C)C(=O)c1ccccc1C2=O + CC(C)(C)c1cnc(CSc2cnc(NC(=O)C3CCNCC3)s2)o1 [SNS-032] (first compound 0.0004 µM, partner dose 0.01 µM) | 83.4% | 87.8% | 89.2% | 94.4% | 93.4% | 73.1% |
| Nc1cccc2c1CN(C1CCC(=O)NC1=O)C2=O (configuration not stated) [lenalidomide] + CC1(C)NC(=O)N(c2ccc([N+](=O)[O-])c(C(F)(F)F)c2)C1=O [nilutamide] (first compound 1 µM, partner dose 1 µM) | 90.9% | 85.6% | 88.3% | 91.3% | 88.6% | 84.8% |
| Cn1c(Nc2ccc(C(F)(F)F)cc2)nc2cc(Oc3ccnc(-c4ncc(C(F)(F)F)[nH]4)c3)ccc21 + COc1cc2ncnc(Nc3ccc(Oc4ccccc4)cc3)c2cc1OC [SrcI1] (first compound 0.08 µM, partner dose 2 µM) | 60% | 88.4% | 53.6% | 45.1% | 67.4% | 92.7% |
| O=C(CCCCCCC(=O)Nc1ccccc1)NO [vorinostat] + Cc1cc(N2CCOCC2)cc2[nH]c(-c3c(NC[C@@H](O)c4cccc(Cl)c4)cc[nH]c3=O)nc12 [BMS536924] (first compound 0.08 µM, partner dose 0.2 µM) | 108% | 103% | 73.7% | 94% | 76.9% | 95.1% |
| Nc1cccc2c1CN(C1CCC(=O)NC1=O)C2=O (configuration not stated) [lenalidomide] + CCN(CC)CCCCNc1ncc2cc(-c3cc(OC)cc(OC)c3)c(NC(=O)NC(C)(C)C)nc2n1 [PD173074] (first compound 1 µM, partner dose 0.1 µM) | 106% | 88.8% | 92.2% | 94% | 116% | 97.8% |
| Clc1ccc(Nc2nnc(Cc3ccncc3)c3ccccc23)cc1 [vatalanib] + COc1cc(N2CCC(N3CCN(C)CC3)CC2)ccc1Nc1ncc(Cl)c(Nc2ccccc2S(=O)(=O)C(C)C)n1 [NVP-TAE684] (first compound 2 µM, partner dose 0.08 µM) | 73.1% | 115% | 80.5% | 89.7% | 127% | 110% |
| C#Cc1cccc(Nc2ncnc3cc(OCCOC)c(OCCOC)cc23)c1 [erlotinib] + CCN(CC)CCCCNc1ncc2cc(-c3cc(OC)cc(OC)c3)c(NC(=O)NC(C)(C)C)nc2n1 [PD173074] (first compound 0.8 µM, partner dose 0.1 µM) | 96.9% | 109% | 72.3% | 94.4% | 114% | 98.1% |
| COCC[n+]1c2c(n(Cc3cnccn3)c1C)C(=O)c1ccccc1C2=O + Cn1cc(/C=C2\C(=O)Nc3cccnc32)c2ccccc21 [GW441756] (first compound 0.0004 µM, partner dose 0.4 µM) | 80.6% | 116% | 102% | 97.4% | 115% | 55.8% |
| Nc1cccc2c1CN(C1CCC(=O)NC1=O)C2=O (configuration not stated) [lenalidomide] + NC(=O)Nc1cc(-c2cccc(F)c2)sc1C(=O)N[C@H]1CCCNC1 [AZD7762] (first compound 1 µM, partner dose 0.02 µM) | 85.6% | 86.7% | 92.9% | 92.6% | 74.3% | 98.4% |
| OCc1c[nH]c2ccccc12 [Indole-3-carbinol] + COC(=O)c1sccc1S(=O)(=O)Nc1ccc(Nc2ccccc2)cc1OC [GSK0660] (first compound 0.8 µM, partner dose 1 µM) | 107% | 122% | 110% | 100% | 103% | 77.2% |
| COCC[n+]1c2c(n(Cc3cnccn3)c1C)C(=O)c1ccccc1C2=O + CC1(C)NC(=O)N(c2ccc([N+](=O)[O-])c(C(F)(F)F)c2)C1=O [nilutamide] (first compound 0.0004 µM, partner dose 1 µM) | 87.8% | 96.5% | 93.6% | 83.1% | 81% | 64.8% |
| COCC[n+]1c2c(n(Cc3cnccn3)c1C)C(=O)c1ccccc1C2=O + COc1cc(Nc2ncc(F)c(Nc3ccc4c(n3)NC(=O)C(C)(C)O4)n2)cc(OC)c1OC [Tamatinib] (first compound 0.0004 µM, partner dose 0.4 µM) | 97.2% | 94.9% | 69% | 85.5% | 98.1% | 77% |
| Nc1cccc2c1CN(C1CCC(=O)NC1=O)C2=O (configuration not stated) [lenalidomide] + COc1ccc2c(c1)CCC1C2CCC2(C)C(NCCCCCCN3C(=O)C=CC3=O)CCC12 [U73122] (first compound 1 µM, partner dose 0.4 µM) | 101% | 97.6% | 86.3% | 82.9% | 82.4% | 99.3% |
| C#Cc1cccc(Nc2ncnc3cc(OCCOC)c(OCCOC)cc23)c1 [erlotinib] + COc1cc2c(Oc3ccc4[nH]c(C)cc4c3F)ncnc2cc1OCCCN1CCCC1 [cediranib] (first compound 0.8 µM, partner dose 0.4 µM) | 102% | 105% | 85% | 93.5% | 103% | 105% |
| Clc1ccc(Nc2nnc(Cc3ccncc3)c3ccccc23)cc1 [vatalanib] + Nc1cccc2c1CN(C1CCC(=O)NC1=O)C2=O [lenalidomide] (first compound 2 µM, partner dose 1 µM) | 99.9% | 109% | 113% | 101% | 106% | 108% |
| C#Cc1cccc(Nc2ncnc3cc(OCCOC)c(OCCOC)cc23)c1 [erlotinib] + CO[C@@H]1[C@H](N(C)C(=O)c2ccccc2)C[C@H]2O[C@]1(C)n1c3ccccc3c3c4c(c5c6ccccc6n2c5c31)C(=O)NC4 [Midostaurin] (first compound 0.8 µM, partner dose 0.08 µM) | 77% | 67.4% | 65% | 71.4% | 74.4% | 109% |
| COCC[n+]1c2c(n(Cc3cnccn3)c1C)C(=O)c1ccccc1C2=O + COc1ccc(-c2ccc3c(N4CCOCC4)nc(N4C[C@@H](C)O[C@@H](C)C4)nc3n2)cc1CO [KU0063794] (first compound 0.0004 µM, partner dose 0.02 µM) | 92.2% | 80.9% | 88.2% | 71.4% | 119% | 73.8% |
| O=C(CCCCCCC(=O)Nc1ccccc1)NO [vorinostat] + O=C(Nc1cccc(Cl)c1)Nc1ncc(CCNc2ncnc3ccsc23)s1 [SNS314] (first compound 0.08 µM, partner dose 0.0008 µM) | 72.5% | 105% | 74.8% | 96.6% | 102% | 87.5% |
| OCc1c[nH]c2ccccc12 [Indole-3-carbinol] + CC(C)CCN1c2nc(Nc3cc(F)c(O)c(F)c3)ncc2N(C)C(=O)C1C [BID1870] (first compound 0.8 µM, partner dose 0.2 µM) | 100% | 96.8% | 96.2% | 89% | 108% | 88.4% |
| COCC[n+]1c2c(n(Cc3cnccn3)c1C)C(=O)c1ccccc1C2=O + O=C(O)c1ccc(-c2c[nH]c3ncc(-c4ccccc4)cc23)cc1C1CCCC1 [GSK650394] (first compound 0.0004 µM, partner dose 0.16 µM) | 96.4% | 85.6% | 93.3% | 80.3% | 115% | 54.6% |
| O=C(CCCCCCC(=O)Nc1ccccc1)NO [vorinostat] + Oc1cc(-c2nc(-c3ccccc3)[nH]c2-c2ccncc2)ccc1Cl [L779450] (first compound 0.08 µM, partner dose 0.2 µM) | 103% | 121% | 113% | 65.5% | 80.6% | 111% |
| Nc1cccc2c1CN(C1CCC(=O)NC1=O)C2=O (configuration not stated) [lenalidomide] + CO[C@@H]1[C@H](N(C)C(=O)c2ccccc2)C[C@H]2O[C@]1(C)n1c3ccccc3c3c4c(c5c6ccccc6n2c5c31)C(=O)NC4 [Midostaurin] (first compound 1 µM, partner dose 0.08 µM) | 101% | 85.1% | 102% | 94.5% | 78.4% | 114% |
| Cn1c(Nc2ccc(C(F)(F)F)cc2)nc2cc(Oc3ccnc(-c4ncc(C(F)(F)F)[nH]4)c3)ccc21 + Cn1cncc1[C@@](N)(c1ccc(Cl)cc1)c1ccc2c(c1)c(-c1cccc(Cl)c1)cc(=O)n2C [tipifarnib] (first compound 0.08 µM, partner dose 0.01 µM) | 41.4% | 76.5% | 83.2% | 46% | 54.9% | 84.5% |
| O=C(CCCCCCC(=O)Nc1ccccc1)NO [vorinostat] + CN(NC(=O)CC(=O)NN(C)C(=S)c1ccccc1)C(=S)c1ccccc1 [STA4783] (first compound 0.08 µM, partner dose 0.006 µM) | 70.9% | 56% | 51.2% | 73% | 86.7% | 110% |
| Cn1c(Nc2ccc(C(F)(F)F)cc2)nc2cc(Oc3ccnc(-c4ncc(C(F)(F)F)[nH]4)c3)ccc21 + O=S(=O)(c1ccccc1)N(CC(F)(F)F)c1ccc(C(O)(C(F)(F)F)C(F)(F)F)cc1 [T0901317] (first compound 0.08 µM, partner dose 1.4 µM) | 50% | 67.3% | 53.1% | 51.8% | 67.7% | 72.9% |
| OCc1c[nH]c2ccccc12 [Indole-3-carbinol] + OCCn1cc(-c2cnc3nnn(Cc4ccc5ncccc5c4)c3n2)cn1 [PF04217903] (first compound 0.8 µM, partner dose 1 µM) | 103% | 93% | 89.9% | 110% | 64.7% | 96.2% |
